From the supplement of paper PMC6089552
Out of some 3,200 compounds screened, about 300 (9.4%) showed activity. Only a part is listed here, and it is no random draw.

Tested on: A673/TR/shEF
Assay: cell viability (LOESS-normalised, relative to median of negative controls) (log2 ratio); higher = more viable cells (less compound effect), active = hit call of the paper (over 3 MAD below the median)
Conditions: treatment time: 72 h
How it was run: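 A673/TR/shEF Ewing sarcoma cells were plated at 1,500 per well in 384-well plates and cultured with or without doxycycline, added 24 h before compounds, to induce EWS-FLI1 shRNA knockdown. Library compounds at two or more concentrations, alongside DMSO controls, were applied for three days. Cell viability was measured by CellTiter-Glo luminescence on an Envision reader. Readings were LOESS-corrected per plate, divided by the median of negative controls and log2-transformed, and hits were wells lying at least three median absolute deviations from the median of all screened wells.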

[1] = 0.25 µM, library screen: screen2, EWS-FLI1 expression: high (no doxycycline)
[2] = 0.25 µM, library screen: screen2, EWS-FLI1 expression: low (doxycycline-induced shRNA knockdown)
[3] = 2.5 µM, library screen: screen2, EWS-FLI1 expression: high (no doxycycline)
[4] = 2.5 µM, library screen: screen2, EWS-FLI1 expression: low (doxycycline-induced shRNA knockdown)
[5] = 0.103 µM, library screen: screen3, EWS-FLI1 expression: high (no doxycycline)
[6] = 0.103 µM, library screen: screen3, EWS-FLI1 expression: low (doxycycline-induced shRNA knockdown)
[7] = 0.308 µM, library screen: screen3, EWS-FLI1 expression: high (no doxycycline)
[8] = 0.308 µM, library screen: screen3, EWS-FLI1 expression: low (doxycycline-induced shRNA knockdown)
[9] = 0.926 µM, library screen: screen3, EWS-FLI1 expression: high (no doxycycline)
[10] = 0.926 µM, library screen: screen3, EWS-FLI1 expression: low (doxycycline-induced shRNA knockdown)
[11] = 2.8 µM, library screen: screen3, EWS-FLI1 expression: high (no doxycycline)
[12] = 2.8 µM, library screen: screen3, EWS-FLI1 expression: low (doxycycline-induced shRNA knockdown)
[13] = 8.3 µM, library screen: screen3, EWS-FLI1 expression: high (no doxycycline)
[14] = 8.3 µM, library screen: screen3, EWS-FLI1 expression: low (doxycycline-induced shRNA knockdown)
[15] = 25 µM, library screen: screen3, EWS-FLI1 expression: high (no doxycycline)
[16] = 25 µM, library screen: screen3, EWS-FLI1 expression: low (doxycycline-induced shRNA knockdown)
[17] = 0.25 µM, library screen: screen1, EWS-FLI1 expression: high (no doxycycline)
[18] = 0.25 µM, library screen: screen1, EWS-FLI1 expression: low (doxycycline-induced shRNA knockdown)
[19] = 2.5 µM, library screen: screen1, EWS-FLI1 expression: high (no doxycycline)
[20] = 2.5 µM, library screen: screen1, EWS-FLI1 expression: low (doxycycline-induced shRNA knockdown)

Measured: cell viability (log2)

O=C(O)CCc1nc(-c2ccccc2)c(-c2ccccc2)o1
inactive: [1] 0.166 | [2] 0.0807 | [3] 0.142 | [4] 0.114

CC(=O)O[C@H]1CC2(C)[C@@H](C[C@@H](O)[C@H]3[C@@]4(C)CC[C@@H](O)[C@@H](C)[C@@H]4CC[C@@]32C)/C1=C(/CCC=C(C)C)C(=O)O (some centres not stated)
inactive: [1] 0.0714 | [2] 0.0604 | [3] 0.159 | [4] 0.0152

CC(C(=O)O)c1ccc(CC2CCCC2=O)cc1 (configuration not stated)
inactive: [1] 0.142 | [2] 0.0493 | [3] 0.161 | [4] 0.0774

OCC1OC(O)C(O)C(O)C1O (configuration not stated)
inactive: [5] 0.00138 | [6] 0.0347 | [7] 0.0849 | [8] 0.0509 | [9] 0.0635 | [10] 0.0529 | [11] 0.0615 | [12] 0.0566 | [13] 0.0472 | [14] -0.0279 | [15] 0.168 | [16] 0.04

CC[C@H]1OC(=O)[C@H](C)[C@@H](O[C@H]2C[C@@](C)(OC)[C@@H](O)[C@H](C)O2)[C@H](C)[C@@H](O[C@@H]2O[C@H](C)C[C@H](N(C)C)[C@H]2O)[C@](C)(O)C[C@@H](C)C(=O)[C@H](C)[C@@H](O)[C@]1(C)O
inactive: [5] 0.134 | [6] 0.0254 | [17] 0.0382 | [18] 0.0038 | [7] 0.123 | [8] 0.118 | [9] 0.0939 | [10] 0.143 | [19] 0.0708 | [20] 0.0495 | [11] 0.149 | [12] 0.0858 | [13] 0.16 | [14] 0.114 | [15] 0.0894 | [16] 0.171

CC1=C(/C=C/C(C)=C/C=C/C(C)=C/C=C/C=C(C)/C=C/C=C(C)/C=C/C2=C(C)CCCC2(C)C)C(C)(C)CCC1
inactive: [17] 0.0893 | [18] 0.0636 | [19] 0.0911 | [20] 0.187

Nc1ccc(O)c(C(=O)O)c1
inactive: [5] 0.0813 | [6] 0.122 | [7] 0.183 | [8] 0.141 | [9] 0.124 | [10] 0.118 | [11] 0.063 | [12] 0.188 | [13] 0.021 | [14] 0.0712 | [15] 0.0772 | [16] 0.096

CCCCC[C@@H](CC(=O)O)C(=O)O
inactive: [17] 0.0401 | [18] 0.147 | [19] 0.16 | [20] 0.126

Cc1cc(NC(=O)C2=C(O)c3ccccc3S(=O)(=O)N2C)no1
inactive: [17] 0.145 | [18] 0.17 | [19] 0.123 | [20] 0.0859

Cc1cc(C(C)(C)CC(C)(C)C)ccc1OCCOCC[N+](C)(C)Cc1ccccc1
inactive: [17] 0.0514 | [18] 0.0498 | [19] 0.0273 | [20] 0.0435

CN(C)CCCN1c2ccccc2CCc2ccc(Cl)cc21
inactive: [5] 0.0151 | [6] 0.0554 | [17] 0.0507 | [18] 0.096 | [1] 0.145 | [2] 0.167 | [7] 0.0121 | [8] 0.0709 | [9] 0.0261 | [10] 0.0892 | [19] 0.0898 | [20] 0.0888 | [3] 0.0722 | [4] 0.152 | [11] 0.0045 | [12] 0.0924 | [13] 0.0196 | [14] 0.0835 | [15] -0.0212 | [16] 0.0906

COC(=O)C1=C(C)NC(C)=C(C(=O)OC)C1c1ccccc1[N+](=O)[O-]
inactive: [17] 0.0781 | [18] -0.0421 | [1] 0.146 | [2] 0.0938 | [19] 0.122 | [20] 0.0366 | [3] 0.151 | [4] 0.0213

COc1cc(-c2n[nH]c(=S)n2-c2ccc(C)cc2)cc(OC)c1OC
inactive: [17] 0.094 | [18] 0.0811 | [19] 0.123 | [20] 0.179

CNC(=O)[C@H]1O[C@@H](n2cnc3c(NCc4ccc(N)cc4)ncnc32)[C@H](O)[C@@H]1O
inactive: [1] 0.0764 | [2] 0.129 | [3] 0.151 | [4] 0.0652

NC(=NCc1ccc(Cl)c(Cl)c1)NC(=O)c1nc(Cl)c(N)nc1N
inactive: [1] 0.134 | [2] 0.0996 | [3] 0.111 | [4] 0.073

O=C(Nc1cccc(Cl)c1)/C(=C\c1ccco1)NC(=O)c1cccs1
inactive: [17] -0.0172 | [18] 0.0581 | [19] 0.0419 | [20] 0.0226
